Assay results taken from the RNAGym collection of RNA variant scans (doi:10.7554/elife.90254).
The source gives no read counts; variants with many changes may rest on few reads.

B1: OR4K15 (parent)
chain: GUUAACGGUCAUAGGCCAUGGAAACUAGGAGCACCAUUUCGCUGCCAGUGAAGAAAUGAACAAAGAAAAUCUGGGCCAGGCAGGCAUCAAAAGAAAUAGUCUUGCGCUCAACCAGAAAGUCUGUAAUCAUUUUAAGGGUA

Variants of: B1
Assay: self-cleavage, relative activity (ratio to wild type); higher = more cleavage; in vitro, sequencing; the parent is a self-cleaving ribozyme

Variant | self-cleavage
A59G A66G A117G | 1.74
A24G A30C A95G A114G A126G | 0.15
A22G A52U A67U A140G | 1.46
U2C C10A A51G U57C U100C U108C | 0.04
A52G A94G U100C U108C A135U | 0
A94G U120C U130C | 0.96
A5G G8A A59U G74A | 0.35
A54G A69U A117U U130C | 0.74
A11G A52G C71U U122C U132C | 0.12
A5G A60G A78U A135G | 0.18
A56G A60C A110U A118G | 1.39
U108C A111G A125G | 0
A89G A118G A134G | 1.02
A11U A18G A52G U70C U131A U139C | 0.46
A24C U37C A96G | 1.16
U19A A54U A59G A66U A92G U103C | 0.35
A67G U87C A135G | 0.57
U12G U38C U139C | 1.64
G7A A66C A89G | 0.3
U43C A96G A117G | 0.78
A30G A64U U122A | 0.7
A24G C32A U37C A56U | 0.41
A62U U102C A135U | 2.06
U70A A90G U102C A110G | 0.1

Variant | self-cleavage
U9C G15U U38C A89C | 1.3
U19A U102C U122C A126G U131C | 0.5
A89G U102C C109U A111G | 0.02
U39C A47C A96G G138A | 1.91
A30G U127C U139C | 0.7
A30U A89G A116G | 0.87
C25A A51G A60G | 0.87
A18G A66G A67G G123A | 1.19
A22G U38C U49C U132C | 1.75
A18G A51G A82G U100G | 0.4
A4G A30G A69U A92G | 0.43
A89G U103C A126G A135U | 0.34
U49C A129C A134U | 0.33
U2C U57C A98G U122C | 0.97
A92G A98G A126G | 0.35
U3C A30G U103C U130A | 0.68
A18G A67G U72A | 0.19
A11G U70A C101A | 0.14
A18U G53U A90G | 1.67
A51G A59G A96G A110G | 0.15
U9C C42G A54G A69G | 1.04
U9A G41A U87A A98G U102C | 1.77
A23U U38C A91G A114G A126U | 0.81
A23G U26C A33G A47C C109A | 0.5

Variant | self-cleavage
U26C U108C A126G U130C | 0
A55U A59G A117G A129U | 0
A66U A78G U127C | 0.18
A13C A62G A82U | 0.37
A33U U39C A64C G79U | 0.19
U26C A36G U39C A126G U130C | 0.94
A55G A82G A118U A140U | 0.12
U43A U57C A68G A69G | 0.55
A36G U49G U102C A111G | 0
U12C A22U G115A C121U | 0.04
U2C A69U G137U | 1.7
A33U U49A U124C | 0.73
A13U U37C U38C | 1.21
A27G A68G A114U | 0.22
A23G A63G U87C A111U A140G | 0.14
A5G G20A A51G A66C | 0.67
U9C U72A A116G | 0.13
U3C A11C U131C | 0.81
A23G A36G A47U A56G A60G | 0.54
G14A U49C U108C | 0.01
A11G U131C A140G | 1.03
A56G A86G A117G | 1.57
A47G U131C U132C | 0.59
A23G U49C A62U A117U | 1

Variant | self-cleavage
A11G A78G U122C | 0.14
A60G A110U A135G | 0.75
A68G A96G A118U | 0.92
U9C A47G A82U | 0.19
U3C U108C G136A | 0.03
A30G U38C A51G A62G A68G A95G | 0.85
A18G A52G U70C U72A U122A | 0.28
U3C A110U U132A | 1.13
U19C A24U C46U | 1.39
A22U A54G U103C C105U A116G U127C | 0
U12C A18G A51G A89U | 0.61
U9C A86G U120C A126G | 0.87
A56G U131C A135G | 1.26
A5G A60G A63G | 0.86
U72C A90G A94G U132C | 0.25
U2A C17U U102C | 1.65
C17U A30G A82G | 0.75
U9C U49A U122C | 1.46
U37C A54G A96G | 1.72
A4G A90G C109U G137A | 0.34
A5G U12C A59G U132C | 0.98
U26C A47G A64G U70C A126G U131C | 0.13
A5G A52G A60G A69U A96G | 0.93
U2C A13G A23C | 0.91

Variant | self-cleavage
U2C U49C U122A | 1.77
A56G G80A U100C | 0.38
A23U A36G U108C | 0.02
A91G U108A A117U | 0
C81U A90G A91G | 0.27
A13G A18G A24G | 0.56
U57C U100C U132A A135G | 0.59
U2C A86U A111C | 0.07
A36G U38C U39C A92G U100A | 0.45
A13U A36U U39A A110U | 0.86
G1A A47G G58A A59G U70C A92G A117G | 1.58
A90G U102C U108C U124C | 0.02
A5G A11G A64U | 0.48
A13G A33G A82G A114U | 0.08
U39C A60G U72A A90G | 0.17
U70C U97C G138U | 0.54
A52G A63G A67G A69C A89G A92G U133A | 1.78
U9C U100C A118G U122A | 2.14
U87C U122C U132A | 1.01
A11G A18G A94U A117U U124C | 0.17
A18U A23G A63U | 1.23
A5U A86G A125G | 0.36
C35U U43C A67G | 0.88
A18G U38C A56G A60C | 1.58

Variant | self-cleavage
A33U U38C U132A G136U | 1.63
U2C A47G A64U A78G | 0.08
A11C A30G A66G | 1.35
U26C A95G A117G U127C | 2.27
U2A U9C A22G U43C A47G A117G | 1.59
U37C U49G U124C | 0.41
U9C A55G C77U | 0.47
A11U U12A A47G U57C | 0.33
A23U U37C U43A A98U U100C | 2.89
A24U A27G A33C U39C U70A | 0.42
U3C U49C A89C A94G U127C | 1.37
A47U U87C A118G U127C | 0.11
A90G U100C U130C | 2.77
A22G A51U A55G A135G | 0.62
A47G U49A A94G | 0.61
G21A C34U A89U | 1.61
U9C A47G U72A U120G U127A | 0.24
U43A A64G U70A | 1.97
A82U A110U A114C U139C | 0.01
A52G A78G U120C A125G | 0.01
U9G A11G C113U | 0.06
A30G A33G G83A | 1.67
A4G A22G U103C | 1.01
A56G A67G U72C U131C | 0.13

Variant | self-cleavage
U39C U57C G106U | 0.02
A30G A33U A90G A111C | 0.01
A62G A69U G137A | 0.69
A90G A94U A125G | 0.26
A27G A64G U70A U97C | 1.31
A18U A33U A52G A55G A56G C109A A117G | 0.31
U9C A67G U108C | 0.02
A5G U38C A59G A62G U87A | 0.76
U9C A47G A59G A78G A92U U122A | 0.1
A24G A54G A64G | 1.35
U37C A62U A95G | 1.19
U39A A47U U57A U124A | 0.27
G15C A82U A96G | 0.33
A24G A33C A55G U108C A117G U132C | 0.01
U38A U43A A89G A94G U131C | 1.57
U43A A62U G106U A116G | 0.01
A27G A64G A86G A114G | 1.28
A94G A110G U127C | 0.08
A5G A54G A118G | 0.63
U9A A59G U72C A94U U127C U132C | 0.05
A52G A69G U87A A126G | 0.39
U19C A63U A82G A111G | 0
A27G A62G A82G | 0.42
